# Assay results: PubChem BioAssay AID1963576 (National Center for Advancing Translational Sciences (NCATS), 2024)
# Screen size: about 46,000 compounds; about 60 (0.1%) were called active. Another 3% or so got no clear call; they are omitted. Calls follow the shape of the dose curve; as a rule, active = well fitted inhibition curve with a large enough effect; inconclusive = small, poorly fitted or top-dose-only effect; inactive = no such curve, though single readings can be large or run the other way. The list shows a part of the results.
# Test: Primary qHTS assay for Inhibitors of ovarian cancer metastasis using an organotypic tumor microenvironment (TME) model. Also: nearly all actives have a fitted effect of over 65% in size.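 As to activity change, negative = inhibition: plate controls were DMSO wells for no effect and tomatine positive control wells for full effect.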
# Conditions: SKOV3ip1-GFP adhesion/invasion on 3D omental model, fluorescence; series mostly up to 45.8 µM; activity change, negative = inhibition: at the top concentration
# In short: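 A 3D layer of primary human omental fibroblasts, mesothelial cells, fibronectin and collagen I, grown 48 hr, received SKOV3ip1-GFP cells in serum-free medium plus compounds at 0.36-46 umol/L. After 2 hr RT and 16 hr 37 C, fixed adherent GFP cells were counted; normalized to DMSO and tomatine.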
SMILES,outcome,"activity change, negative = inhibition"
Cc1ccc(C)c(N2CCN(C(=O)Cn3nc(Cc4cccnc4)c4ccccc4c3=O)CC2)c1,inactive,
CCN(CC)C(=O)Cn1cc(SCC(=O)Nc2ccc(C)cc2)c2ccccc21,,inactive: 4.23%
Cn1cnc2c(F)c(Nc3ccc(Br)cc3Cl)c(C(=O)NOCCO)cc21,,inactive: 10.3%
Cc1cc(C)c2c(C)c(C(=O)N3CCC(c4nc5ccccc5s4)CC3)oc2c1,,inactive: -9.1%
Cc1cccc(CNC(=O)C2CCN(c3nc4ccc(Cl)cc4[nH]3)CC2)c1,inactive,
Nc1nc(N)c2nc(-c3cccc(O)c3)c(-c3cccc(O)c3)nc2n1,,inactive: -8.96%
CCn1c2ccc(F)cc2c2nnc(SCCN3CCCCC3)nc21,,inactive: -3.73%
Cc1ccc(NC(=O)CCC(=O)N2CCOc3ccccc32)c(Cl)c1,,inactive: 10.1%
Cc1ccc(C(=O)Nc2ccccc2F)cc1S(=O)(=O)N1CCOCC1,,inactive: -6.33%
COc1cc(C2c3c(oc4ccc(C)cc4c3=O)C(=O)N2Cc2ccc(F)cc2)ccc1O (stereo unspecified),,inactive: 6.63%
COc1ccc(C2Nc3ccccc3-c3nnc(SC)nc3O2)cc1C (stereo unspecified),,inactive: -3.74%
Cc1nc2c3ccccc3nc(NNC(=O)CCC(=O)N3CCN(c4ccccc4F)CC3)n2n1,inactive,
Cc1c(C(=O)Nc2ccc(Br)cc2F)sc2ncnc(N(C)C3CCCCC3)c12,,inactive: 6.85%
COc1cc(CN2CCc3nc(N4CCN(c5ccccc5F)CC4)ncc3C2)ccc1OC(C)C,,inactive: 4.55%
O=C(Nc1ccc2nc(SCC(=O)N3CCCc4ccccc43)sc2c1)c1ccc(F)cc1,,inactive: -15.4%
CCCCN(CC)C(=O)Cn1c(=O)n(-c2ccc(OCC)cc2)c(=O)c2c3c(sc21)CCCC3,,inactive: -0.864%
N#Cc1ccccc1NC(=O)C(=O)NCC(c1ccc2c(c1)OCO2)N1CCN(c2ccccc2)CC1 (stereo unspecified),,inactive: -12.2%
Cc1nc2cccnc2n1-c1cccc(C(=O)NCCc2ccc(Cl)cc2)c1,,inactive: -0.0499%
CC(C)(C)c1ccc(NC(=O)CSc2nnc3scc(-c4ccccc4)n23)cc1,,inactive: 1.91%
CCOC(=O)c1cnc2c(OC)cccc2c1Nc1cccc(O)c1,inactive,
CSc1ncc(C(=O)Nc2ccccc2C(=O)c2ccccc2)c(C)n1,,inactive: 1.86%
COc1ccc(NC(=O)CSc2nc(-c3ccccc3)nc3cc(=O)[nH]n23)cc1,inactive,
Cn1cnc(S(=O)(=O)N2CCC(C(=O)N3CCN(c4cccc(C(F)(F)F)c4)CC3)CC2)c1,,inactive: 3.12%
O=C(Nc1c(C(=O)c2ccccc2)oc2ccccc12)c1cc(=O)c2ccccc2o1,,inactive: 9.34%

SMILES,outcome,"activity change, negative = inhibition"
CCOC(=O)c1c(C)[nH]c(C)c1S(=O)(=O)NCC(=O)N(C)c1ccc(C)c(C)c1,,inactive: 10.5%
COc1ccccc1-c1cc(C(=O)Nc2sc3c(c2C#N)CCCC3)no1,inactive,
Cn1c(=O)oc2cc(S(=O)(=O)CCC(=O)N3CCN(c4ccccc4)CC3)ccc21,,inactive: 9.91%
COc1ccc(OC)c(NC(=O)CSc2ccnc(=O)[nH]2)c1,,inactive: -2.15%
COc1ccc(NC(=O)c2c(NCc3ccc(C)o3)sc3c2CCC(C)C3)c(OC)c1 (stereo unspecified),,inactive: 1.72%
COc1ccc(C(=O)NCc2nnc(SCC(=O)Nc3ccccc3)n2-c2ccc(F)cc2)cc1,,inactive: -7.64%
CCOc1ccc(CCNC(=O)CN2C(=O)C(CC)Oc3ccccc32)cc1OCC (stereo unspecified),inactive,
COc1ccc(C2CC(c3c(O)n(C4CCCCC4)c(=O)[nH]c3=O)=Nc3ccccc3S2)cc1 (stereo unspecified),,inactive: -2.36%
COC(=O)c1c(-c2ccc(Cl)cc2)noc1N1CCN(c2ccc(OC)cc2)CC1,,inactive: 10.6%
COc1ccccc1N1CCN(S(=O)(=O)c2c(C)sc3ncn(CC(=O)Nc4cccc(Cl)c4)c(=O)c23)CC1,,inactive: 0.731%
COc1cc(OC)c(Nc2cc(C)nc3ncnn23)cc1Cl,,inactive: -13.1%
O=C(Nc1ccc(Br)cc1)C1CCN(c2cnccn2)CC1,inactive,
CCc1nn2c(=O)cc(COC(=O)CNC(=O)c3ccccc3)nc2s1,,inactive: -28.7%
CCC(C(=O)N1CCN(c2ccccc2)CC1)n1nc(C)n2c(cc3sccc32)c1=O (stereo unspecified),inactive,
O=C(COc1ccccc1F)OCc1cc(=O)n2nc(-c3cccs3)sc2n1,,inactive: -1.71%
CCN(CC)S(=O)(=O)c1nnc(NC(=O)COc2ccccc2Cl)s1,inactive,
COc1ccccc1CNC(=O)c1ccc(N2CCCC2)c(NC(=O)NCc2ccccc2)c1,,inactive: 2%
CCOc1ccc(C(=O)Nc2cccc(NC(=O)c3ccco3)c2)cc1Cl,inactive,
Cc1cccc(CNS(=O)(=O)c2ccc3[nH]c(=O)ccc3c2)c1,,inactive: 14.1%
CC1CCCCN1CCCNC(=O)Cn1ncc2c([nH]c3ccccc32)c1=O (stereo unspecified),,inactive: 6.46%
Cc1ccccc1CNC(=O)C1CCN(c2nn3cc(-c4ccc(F)cc4)nc3s2)CC1,,inactive: 8.36%
CCC(CC)c1nn2c(=O)cc(COc3ccc(NC(=O)c4ccccc4Cl)cc3)nc2s1,,inactive: 8.92%
NC(=O)c1cc(S(=O)(=O)N2CCN(c3ccc(F)cc3)CC2)cs1,,inactive: 3.28%
COc1ccc(C)cc1NC(=O)c1cc(S(=O)(=O)NC2CCCCCC2)ccc1F,,inactive: 12.1%

SMILES,outcome,"activity change, negative = inhibition"
COc1ccc(Cn2c(=O)[nH]c3cc(C(=O)N4CCN(c5cc(C)ccc5C)CC4)ccc3c2=O)cc1,inactive,
CCOC(=O)c1cnc2cc(-c3ccc(Cl)cc3)nn2c1-c1ccccc1,,inactive: -5.11%
CC(C)Cn1c(=O)c2ccccc2n2c(CCC(=O)Nc3cccc(Cl)c3)nnc12,,inactive: 10.6%
CC(=O)c1cc(-c2ccccc2)n(CC(=O)NC2CCCCC2)c1C,,inactive: 2.86%
COc1ccc(-c2cnnn2-c2ccc(NC(=O)c3ccc(S(=O)(=O)N(C)C)cc3)cc2)cc1,,inactive: 8.03%
COc1ccc(-c2cnnn2-c2ccc(NC(=O)c3c(F)cccc3F)cc2)cc1,,inactive: -5.3%
COc1cc(-c2nnc(SCC(=O)NCc3ccccc3Cl)o2)cc(OC)c1OC,,inactive: 12.5%
CCOc1ccc(Cn2nnc3c(=O)[nH]c(C4CCN(C(=O)c5ccccc5)CC4)nc32)cc1,,inactive: 2.67%
O=C(Cc1ccc(F)cc1)NC1CC(=O)N(c2ccccc2)C1 (stereo unspecified),,inactive: -1.18%
Cc1ccc(NC(=O)Cn2c(=O)n(CCCCCC(=O)NCc3ccc(F)cc3)c(=O)c3sccc32)cc1C,inactive,
CCOc1ccccc1/C=C/c1onc(C)c1S(=O)(=O)N1CCC(C(=O)N(CC)CC)CC1,,inactive: -0.55%
O=C1Nc2c(c(=O)[nH]c(=O)n2-c2ccccc2)C1(NS(=O)(=O)c1ccc(Cl)cc1)C(F)(F)F (stereo unspecified),,inactive: -1.69%
CCCOc1ccc(-c2nn(-c3ccccc3)cc2C2NC(=O)NC(C)=C2C(=O)OC(C)C)cc1 (stereo unspecified),inactive,
Cc1ccc(C(=O)NCCn2c(C)cc3ccccc32)cc1C,,inactive: 7.07%
Cc1ccc(S(=O)(=O)C(CNC(=O)C(=O)NCc2ccc(Cl)cc2)c2cccs2)cc1 (stereo unspecified),inactive,
COc1cc2c(=O)n(CCC(=O)NCC3CCCO3)c(=O)n(CC(=O)Nc3ccc(C)cc3)c2cc1OC (stereo unspecified),,inactive: 4.62%
CCC(=O)N1c2ccc(S(=O)(=O)N3CCN(c4ccccc4)CC3)cc2CC1C (stereo unspecified),inactive,
CC(=O)c1ccc(NC(=O)c2cn3c4c(ccc(Cl)c4c2=O)OC(C)C3)cc1 (stereo unspecified),,inactive: 2.02%
Cc1cc(C)cc(-n2nnc(-c3nc(-c4ccc5c(c4)OCO5)no3)c2C)c1,,inactive: -2.67%
O=C1CN(C(=O)c2ccc(S(=O)(=O)N3CCCCC3)cc2)C(c2ccc(F)cc2)c2cc(F)ccc2N1 (stereo unspecified),,inactive: -1.58%
Cc1ccc(CNC(=O)C2CCCN(S(=O)(=O)c3ccc4c(c3)oc(=O)n4C)C2)cc1 (stereo unspecified),inactive,
COc1cccc(C(=O)NCCSc2c(-c3ccc(F)cc3)[nH]c3ccccc23)c1OC,,inactive: 17.6%
Cc1ccc(S(=O)(=O)c2cn(CC(=O)Nc3ccc(C)c(Cl)c3)c3ccc(C)cc3c2=O)cc1,inactive,
Cc1c(NC(=O)c2ccc(OC(C)C)cc2)cccc1-c1nc2ncccc2o1,,inactive: 6.56%

SMILES,outcome,"activity change, negative = inhibition"
CC(Oc1ccc(F)cc1)C(=O)NCC1(N(C)C)CCCCC1 (stereo unspecified),,inactive: -0.317%
COc1ccc(-c2cc(C(F)(F)F)c(C#N)c(SCC(=O)Nc3ccc(F)cc3)n2)cc1,,inactive: 11.1%
Cc1ccc(S(=O)(=O)N2CCCc3cc(NS(=O)(=O)c4ccc(F)c(C)c4)ccc32)cc1,,inactive: -4.92%
Cc1ccc(NCc2cccn2-c2nnc(N3CCC(C(=O)NC(C)C)CC3)s2)cc1,inactive,
COc1ccc(-c2cn3nc(N4CCC(C(=O)NCc5ccccc5F)CC4)sc3n2)cc1,,inactive: -4.96%
CCCS(=O)(=O)Nc1cc(-c2cn3cccc(C)c3n2)ccc1C,,inactive: -22%
CC(C)Oc1ccc(CNC(=O)CCCn2c(=O)c3cccn3c3ccccc32)cc1,,inactive: -0.759%
CN(C)CCNC(=O)c1ccc(-n2c(-c3ccccc3)cc3c2CCCC3)cc1,inactive,
CCc1ccc(CNC(=O)c2ccc3c(c2)N=C(C)c2cc(C)ccc2S3)cc1,,inactive: 0.527%
CCOC(=O)c1c(NC(=O)CS(=O)(=O)c2ccc(C)cc2)sc2c1CCCCC2,,inactive: -9.99%
Cn1c(N2CCCCS2(=O)=O)nc(C(=O)NCc2ccc(F)cc2)c(O)c1=O,,inactive: -4.96%
COc1ccc(CNc2ncnc3onc(C)c23)cc1,,inactive: -0.106%
CCCNC(=O)c1ccc2c(c1)ncn2-c1ccc(C)cc1C,,inactive: -4.16%
COc1ccc(NC(=O)Cn2c(=O)oc3cc(S(=O)(=O)NC4CCCC4)ccc32)cc1OC,,inactive: -2.16%
Cc1ccc(-c2ccc(=O)n(Cc3cc(C)ccc3C)n2)cc1,inactive,
Cc1ccc(-c2nc3cccnc3s2)cc1NC(=O)C(C)C,,inactive: 1.24%
CCC(CC)C(=O)NC1CC(=O)N(c2ccc3c(c2)OCCO3)C1 (stereo unspecified),inactive,
CC1=Nc2cc(C(=O)NCCc3ccc(Cl)cc3)ccc2Sc2ccc(C)cc21,,inactive: -4.31%
Clc1ccc(-c2nc3sccn3c2C=NOCc2ccc(Cl)c(Cl)c2)cc1,,inactive: 4.19%
Cc1ccc(C(C)C)c(OCC(=O)Nc2cccc(NC(=O)c3ccco3)c2)c1,,inactive: -3.27%
Cn1c(=O)c2c(SCC(=O)N3CCc4ccccc43)nc(-c3ccccc3Cl)nc2n(C)c1=O,,inactive: 1.14%
Cc1nc(-c2ccccc2)sc1-c1ccc(SCC(=O)NCc2ccc(F)cc2)nn1,inactive,
CCOc1ccc(-n2c(CCC(=O)O)ccc2-c2ccc(Br)cc2)cc1,,inactive: -3.58%
CCN(c1cc(C)cc(C)c1)S(=O)(=O)c1nnc(NC(=O)c2cccs2)s1,,inactive: -8.03%
